In the supplement of paper PMC10126150:
Values marked as one replicate rest on one cluster of the flow cell; about a third of the high ones do not repeat.

What follows are sequences tested on ATP (assay: switch fluorescence ratio, 500 uM ATP over buffer (Cy3 cluster intensity, sum of 5 cycles each) (fold (ratio)); higher = stronger signal-on switching upon ATP binding; sequences stand for … in TCGTCGGCAGCGTCAGATGTGTATAAGAGACAGTTTTTTTTTTTTTTTTTTTTTTTTT…TC). Settings: aptamer strand: ATP DNA aptamer (quencher-CACCTGGGGGAGTATTGCGGAGGAAGG + anchor), 100 nM annealed; ATP concentration: 500 uM; one replicate.
Outline: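 Values give the fluorescence ratio for each switch-domain sequence, averaged from per-cluster ratios of summed target-cycle to summed buffer-cycle Cy3 intensity. The Cy3-labelled switching-strand clusters sat on a modified Illumina MiSeq flow-cell, were annealed to 100 nM quencher-labelled ATP aptamer, and were imaged in selection buffer, then after 15 min with 500 uM ATP at 22 °C. Five cycles ran with NaOH stripping and re-annealing between them, and clusters outside 100-1000 RFU were excluded.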
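Also: ATP exposure 15 min at 22 °C before imaging.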

Sequence	switch fluorescence ratio
GAAATCCGGC	1.06
GTTTCGTCGT	1.02
GCGCGATTGT	1.04
ACTCCACTGT	4.24
GAGCGGTGCT	1.04
TGATGCAACA	1.01
CTCAAAGTGT	0.993
GGGTGTCAAT	1.01
GATTTGTCTA	0.952
ACACGGTCTC	0.971
AAAGGGCAGA	0.994
AGCAGCGATT	0.981
GCTGAGGTGC	1.03
TAATAGCTGG	1.03
TGTTCCGCGC	4.43
CGCAAGTT	1.41
AGTTTCATTG	0.983
TTAGACTCTT	0.973
TCAAGTCTGT	0.998
GGTCGATCCT	0.985
TGGTTAGGTA	1.06
GAGGTCCGGT	0.981
GGTAAGGGGT	1.21
TCACGGACTT	1.4
CGTTCCACCT	1.08
GAAGTGGAAA	0.982

Sequence	switch fluorescence ratio
TTACTGATTT	1
CTTACAACAC	1.35
TGGAATTATG	1.02
TCGTATCTAT	1
CATTATTTCG	0.981
AAAGGGATGG	0.971
GCAAAGCGTT	1.01
TTTCCTTAGT	1.06
TTACTATGGG	0.978
GGTATTTCTT	0.974
TGTGACGGAT	0.977
TTCGCGATCT	1.68
TCTTACA	1.04
AGCTGTGGCT	0.943
GCCGAGCATC	1.52
GGGGGCGAGT	1.02
TTAATAGTCG	0.997
CCAGCTTAGT	1.01
AATTACGTAT	1.13
AATGCTGTCA	0.978
AAAGAAAACG	1.08
TAAGATGGGA	1.03
ACGAATATAA	1.03
ATCCTAAG	1
GTGGGGTCCT	1.02
GCTTCCGTCA	1.12

Sequence	switch fluorescence ratio
ATGGCGAACT	0.976
AGGTGGCTGT	0.958
GTGCCCCGCT	0.998
TGTCGGCTGT	1.01
TACGGAGGCA	1.01
TCGGCCGAGG	1.02
TTGCTTACGA	1.05
AACGATCCGG	0.993
CACGTGTTTC	0.998
GTAAAACGTC	0.986
ACTAATCTG	1.09
GAACAACC	1.04
GAGGGACAG	1.02
TTTAGACACC	0.913
CGAAAGTCTG	1.03
CCCCGTCATG	2.47
GGAACCAAAT	0.998
AGTTTCATTT	0.975
GCCTGGAGTC	1.02
TCATATACGT	1.06
ATACTGATGG	0.974
TTAGATGAGT	0.978
TCAACGTGC	1.01
TCGATTTTGC	1.05
GGTGCTCGGG	0.987
TATGGTTGT	0.986

Sequence	switch fluorescence ratio
AGGGACAACG	1.11
CAGGCTTAA	1.01
TTAATCCCCA	1.06
GCGGTGTTGT	1.02
GGCGCCCCAG	1.03
AACTCTGCGC	1.46
CCGTGTGATC	1.07
AGATGGTGGC	1.31
TCATCGTTAC	1.4
ATTTCAATAA	1
GTACTTTTTA	1.03
AGTTTCAATA	1.02
GGGAGGTCGC	0.984
CGAATTTTGG	1
TATTTTAGTC	1.07
ATATTTCACC	1.05
GATCGCGGTA	1.02
AGGTATTT	1.02
ATATGAGTGG	1.01
CGTTTCTTGA	1.01
CTTACCGGGG	1.01
GTACAGAATG	1
GCGGGCTATA	1.01
GCCTCGTTAG	0.97
CAAGCCAATG	1.02
GAGACCGGTT	1.03

Sequence	switch fluorescence ratio
AAAACCCCTA	1.06
AAACCCCGGG	1.13
CGGTGAGTT	1.27
AGATGTGCGC	1.01
ATAACCTCTT	1.07
CAAGATTGGC	0.983
TATTCTGTA	1.01
AGTTAAGTGT	0.979
TATGTTGGCC	1.04
GGCGGTTTCT	0.986
TATAAAGGAC	1.06
AATTCAAATG	1.03
CACCGCACGT	2.47
GCATGTGGCC	0.959
ATGCGCACTC	1.53
CAATAATAAG	0.97
GGGACGCCCT	1.06
TGCTAGTAAA	1.02
CGCGATACGG	1.37
CAGATATGTT	0.949
AAACTTATCT	1.02
GTAAGTTAAA	1.01
TTACGGATCT	1.06
GGGCAAAACA	3.94
AGAATAAGAT	0.984
CCTGAAATGT	1.12

Sequence	switch fluorescence ratio
CGCTTGGCGA	0.998
GAAAGCCTGG	0.993
ATTATATTGA	0.987
TGGTCGCCCC	1.01
TTCAATTAAC	1.02
GATAATCAGC	1
TGTACGGGTG	1.11
CGACTCGTGC	1.29
CGCTTATGAG	1.05
TACCGCTTTA	1.34
CGGCGAAATC	1.04
TGCATGGCAT	0.976
CGGGATCACA	1.02
TCTACTGAGG	1.02
AGGGTCACGC	1.01
TTCAGTGATG	1.03
CAATCGGTGT	1.01
ACTGGTTGCC	0.987
ACTTTGAGA	1.04
GAGATGAAAG	1.06
TTTATCTCAT	0.989
AGGTCTACGG	1.02
TAGCAGCCTT	1.04
TGACATTA	1.04
CGTAGAGCCA	0.963
TTCTTACGGT	1.03

Sequence	switch fluorescence ratio
ACTTAAGCC	1.01
TATCTGCGGT	1.02
AATATTAGTC	1.01
ATCAAGGTGC	1.55
GGGTAGCTGT	1.02
CCGTCTGC	1.22
CAATTTTTAT	1.02
TCTTAATACG	1.04
TAGGTATAG	0.984
CTAAAATGTT	1.04
AAGTTGTCGC	1
ACGACTTCAG	1.09
TAACGGGCTC	1.02
TGTGGGACCA	1.01
AAGTTAGCAT	1.02
AGGATCTGAT	0.973
CCGTTACGCG	1.03
ACCGCTAAGT	1.26
GTCATCAGGC	1.05
ACATCACCCT	1.41
GGAATAGTCC	1.53
GCCCGCTAAA	1.12
GCTGACGGGG	0.998
CAAATGGAGG	0.995
GTACGGAGCT	1.37
AGCCTATAGT	1.02

Sequence	switch fluorescence ratio
TGGTTAAAAC	1
TCAATCAAGA	1.02
GAGGAGAGGA	0.971
TCGTACGTTA	1.09
TGATCAGGC	0.969
GCCGACCCTA	1.02
CCAGTGTGGG	0.969
AGTGATGTCC	0.981
CGTATTACGA	1
CCAACCTGTT	1.03
CTTCACCAGT	1.24
GCCTTAAGGG	1.03
ACGTCCTAAT	1.02
CGGTCTTGTC	1.02
CCAGCCGTAG	1.02
CAGTTGTGCG	1
GCCTATGGTC	1.02
TTGTTAGGCA	1.12
GAGTGTCCAA	1.02
